Reference: PubChem BioAssay AID2147 (National Center for Advancing Translational Sciences (NCATS), 2009)
About 3,600 (1.6%) of roughly 230,000 compounds were called active. This list was built around the results that the source calls inconclusive (neither active nor inactive); the mix of calls is not that of the screen. Calls follow the shape of the dose curve; as a rule, active = well fitted inhibition curve with a large enough effect (not every such curve was filed as active); inconclusive = small, poorly fitted or top-dose-only effect, or another doubt; inactive = no such curve, though single readings can be large or run the other way. Potencies of inconclusive entries are doubtful fits and often do not repeat.

molecular target: Lysine-specific demethylase 4E (Homo sapiens) (UniProt B2RXH2); test: qHTS Assay for Inhibitors of Human Jumonji Domain Containing 2E (JMJD2E); conditions: JMJD2E catalytic domain, FDH-coupled NADH fluorescence (FDH is formaldehyde dehydrogenase); series mostly up to 57.1 µM; activity change, negative = inhibition: at the top concentration
Also: nearly all actives have a fitted effect of over 50% in size.
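For activity change, negative = inhibition in this document: 0% = wells with enzyme and -100% = buffer wells without enzyme.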
Potency is read from the fitted curve at half-maximal effect; tags tell the direction and shape of the fitted curve.

Chain of UniProt B2RXH2 (B2RXH2 whole entry, looked up, the tested form may be a part): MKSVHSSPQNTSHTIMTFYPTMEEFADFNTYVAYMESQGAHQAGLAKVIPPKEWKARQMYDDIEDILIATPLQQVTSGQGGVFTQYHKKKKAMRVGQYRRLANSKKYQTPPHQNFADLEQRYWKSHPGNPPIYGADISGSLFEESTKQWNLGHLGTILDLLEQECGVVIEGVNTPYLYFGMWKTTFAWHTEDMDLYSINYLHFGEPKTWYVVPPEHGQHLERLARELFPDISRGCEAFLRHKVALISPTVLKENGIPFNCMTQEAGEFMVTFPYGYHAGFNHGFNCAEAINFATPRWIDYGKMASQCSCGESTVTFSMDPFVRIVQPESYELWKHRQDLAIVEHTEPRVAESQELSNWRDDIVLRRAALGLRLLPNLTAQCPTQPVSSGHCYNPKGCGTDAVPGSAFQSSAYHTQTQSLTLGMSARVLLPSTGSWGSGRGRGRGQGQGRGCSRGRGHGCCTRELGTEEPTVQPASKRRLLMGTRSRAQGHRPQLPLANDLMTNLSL

Question: For `Cc1ccn2cc(-c3ccc(Br)cc3)nc2c1`, which Potency is on record?
Answer: Its Potency is inconclusive: 28.2 µM [inhibitor, single point].

Question: How did the “activity change, negative = inhibition” value turn out when `CCOc1ccc(NC(=O)N2CCC(NC(=O)C(Cc3ccc(OC)c(OC)c3)NC(C)=O)CC2)cc1` (centres undefined) was run?
Answer: The value was inactive: -1.77%.

Question: For `O=C(Nc1cc2c3c(c1)C1CCCC1CN3CC1CCCC21)c1ccccc1` (centres undefined), which Potency is on record?
Answer: The Potency was inconclusive: 28.2 µM [inhibitor, partial curve].

Question: For `O=C(COc1ccc(Br)cc1Cl)c1ccc[nH]1`, which “activity change, negative = inhibition” value is on record?
Answer: Its value is inactive: -9.08%.

Question: For `CC(C)CCN1NC2(CCC(C)CC2)NC1=S` (centres undefined), which Potency is on record?
Answer: The Potency was inconclusive: 39.8 µM [inhibitor, single point].

Question: Which Potency does the source give for `COc1ccc(-c2cc(N3CCCC3)n3ncnc3n2)cc1` here?
Answer: Its Potency is inconclusive: 39.8 µM [inhibitor, single point].

Question: How did the Potency turn out when `Cc1cccc(NC(=O)CN2C(=O)N/C(=C/c3cc(C)n(-c4cccnc4)c3C)C2=O)c1` was run?
Answer: Its Potency is active: 17.8 µM.

Question: `CCCCN1CCc2c1nc1ccc(Br)cc1c2N` was tested. Which Potency did it give?
Answer: The Potency was inconclusive: 39.8 µM [inhibitor, single point].

Question: With `COc1ccc(-c2cc(C(F)(F)F)n3nc(C(=O)NCc4ccco4)cc3n2)cc1OC` as the molecule, how does the Potency read?
Answer: Its Potency is inconclusive: 35.5 µM [inhibitor, single point].

Question: How did the Potency turn out when `O=C(Nc1ccc(F)cc1)N1CCCN(c2ccc(C(F)(F)F)cn2)CC1` was run?
Answer: Its Potency is inconclusive: 28.2 µM [inhibitor, single point].

Question: Which Potency does the source give for `COc1ccccc1-c1nc(C#N)c(N2CC(C)CC(C)C2)o1` (centres undefined) here?
Answer: The Potency was inconclusive: 14.1 µM [inhibitor, partial curve].

Question: `CC(C)NC(=O)c1onc(CSc2ccc(F)cc2)c1C(=O)O` was tested. Which “activity change, negative = inhibition” value did it give?
Answer: The value was inactive: -0.805%.

Question: `O=C(O)Cn1c2c(c3ccccc31)CCCC2` was tested. Which Potency did it give?
Answer: The Potency was inconclusive: 22.4 µM [inhibitor, partial curve].

Question: For `CC(C)n1cnc2cc(NCc3ccco3)ccc21`, which Potency is on record?
Answer: Its Potency is inconclusive: 28.2 µM [inhibitor, partial curve].

Question: `COc1ccc(C(=O)N/N=C\c2coc3ccccc3c2=O)cc1` was tested. Which “activity change, negative = inhibition” value did it give?
Answer: Its value is inactive: -1.73%.

Question: `CC1(C)CC(=O)C(N=Nc2c(Cl)cc(Cl)cc2Cl)=C(O)C1` was tested. Which “activity change, negative = inhibition” value did it give?
Answer: Its value is inactive: 3.25%.

Question: `CC1=C(C#N)C(c2ccccc2O)C(C#N)=C(C)N1` was tested. Which Potency did it give?
Answer: Its Potency is inconclusive: 35.5 µM [inhibitor, single point].

Question: For `Cc1occc1-c1nnc(SCC(=O)c2cc3ccccc3oc2=O)o1`, which Potency is on record?
Answer: The Potency was inconclusive: 35.5 µM [inhibitor, single point].

Question: Which Potency does the source give for `CCC(C)n1ncn(-c2ccc(N3CCN(c4ccc(O)cc4)CC3)cc2)c1=O` (centres undefined) here?
Answer: Its Potency is inconclusive: 22.4 µM [inhibitor, single point].

Question: Which Potency does the source give for `COc1ccccc1N1C(=O)CC(Nc2ccc(N3CCOCC3)cc2)C1=O` (centres undefined) here?
Answer: The Potency was inconclusive: 39.8 µM [inhibitor, single point].

Question: `COc1cc(C(=O)NCC(c2ccco2)N(C)C)cc(OC)c1OC` (centres undefined) was tested. Which “activity change, negative = inhibition” value did it give?
Answer: Its value is inactive: -1.74%.

Question: Which Potency does the source give for `CC(C)(C)c1ccc(-c2nc(C=O)c3ccccn23)cc1` here?
Answer: The Potency was inconclusive: 28.2 µM [inhibitor, single point].

Question: `CC(C)Oc1ccc(C2c3c(oc4ccccc4c3=O)C(=O)N2CCCN2CCOCC2)cc1` (centres undefined) was tested. Which Potency did it give?
Answer: The Potency was inconclusive: 39.8 µM [inhibitor, single point].

Question: For `O=C(CC1C(=O)NCCN1Cc1ccc(Cl)c(F)c1)NCC1CCOCC1` (centres undefined), which Potency is on record?
Answer: The Potency was inconclusive: 35.5 µM [inhibitor, single point].

Question: `c1ccc(-c2cc3c(N4CCN(c5ncccn5)CC4)ncnc3s2)cc1` was tested. Which Potency did it give?
Answer: Its Potency is inconclusive: 31.6 µM [inhibitor, partial curve].

Question: Which Potency does the source give for `COc1cccc(CN2CCCC(C(=O)c3ccc4c(c3)OCO4)C2)c1OC` (centres undefined) here?
Answer: Its Potency is inconclusive: 28.2 µM [inhibitor, single point].

Question: How did the Potency turn out when `CCOC(=O)C(=CNc1ccc2c(c1)c1ccccc1n2CC)C(=O)OCC` was run?
Answer: The Potency was inconclusive: 35.5 µM [inhibitor, partial curve].

Question: Which Potency does the source give for `CCCOc1ccc(C(=O)Nc2ccc(N(C)C)cc2)cc1` here?
Answer: The Potency was inconclusive: 28.2 µM [inhibitor, partial curve].

Question: Which Potency does the source give for `C=CCNC(=O)C(C#N)c1nc2ccccc2nc1N1CCN(Cc2ccccc2)CC1` (centres undefined) here?
Answer: Its Potency is inconclusive: 8.91 µM [inhibitor, single point].

Question: With `NC(=O)c1ccccc1NC(=O)/C=C/c1ccc(Cl)cc1` as the molecule, how does the Potency read?
Answer: The Potency was inconclusive: 35.5 µM [inhibitor, single point].

Question: How did the “activity change, negative = inhibition” value turn out when `CSc1nc(NC(C)(C)C)nc(Oc2ccc(=O)n(C)n2)n1` was run?
Answer: Its value is inactive: -1.44%.

Question: Which “activity change, negative = inhibition” value does the source give for `O=C(Nc1ccc(F)cc1F)c1cccn1-c1ncc(C(F)(F)F)cc1Cl` here?
Answer: The value was inactive: -16.5%.

Question: How did the Potency turn out when `Cc1cc(C)n2nc(C(=O)Nc3ccn(Cc4ccccc4C)n3)cc2n1` was run?
Answer: The Potency was inconclusive: 31.6 µM [inhibitor, partial curve].

Question: Which Potency does the source give for `CCOC(=O)N1CCN(C(=O)Nc2ccc3nc(C)c(C)nc3c2)CC1` here?
Answer: Its Potency is inconclusive: 3.98 µM [inhibitor, partial curve].

Question: `Cc1ccc(-c2nc3ncccn3c2NC(=O)C2CC2)cc1` was tested. Which Potency did it give?
Answer: Its Potency is inconclusive: 14.1 µM [inhibitor, partial curve].

Question: How did the Potency turn out when `COc1ccc(N2C(=O)CC(Sc3nnc(-c4ccccc4F)n3C)C2=O)cc1` (centres undefined) was run?
Answer: The Potency was inconclusive: 39.8 µM [inhibitor, single point].

Question: With `O=C(/C=C/c1ccc2c(c1)OCO2)Nc1nc2ccccc2s1` as the molecule, how does the Potency read?
Answer: The Potency was inconclusive: 4.47 µM [inhibitor, full curve].

Question: `COCCNC(=O)/C(C#N)=C/c1cc(C(C)C)c(OC)cc1C` was tested. Which Potency did it give?
Answer: The Potency was inconclusive: 39.8 µM [inhibitor, single point].

Question: `O=C(Nc1cccc2ccccc12)N1CCc2ccccc2C1` was tested. Which Potency did it give?
Answer: Its Potency is inconclusive: 28.2 µM [inhibitor, partial curve].

Question: With `Cc1ccc(C(=O)NC(NC(=O)c2ccc(C)cc2)c2cccc([N+](=O)[O-])c2)cc1` as the molecule, how does the “activity change, negative = inhibition” value read?
Answer: Its value is inactive: 3.56%.

Question: For `Cc1ccc(NS(=O)(=O)c2ccc(OCC(=O)Nc3cccc([N+](=O)[O-])c3)c(C)c2)cc1`, which “activity change, negative = inhibition” value is on record?
Answer: The value was inactive: -6.87%.

Question: Which Potency does the source give for `O=C(/C=C\Nc1ccc(S(=O)(=O)Nc2ncccn2)cc1)c1ccccc1` here?
Answer: Its Potency is inconclusive: 35.5 µM [inhibitor, single point].

Question: With `COC(=O)c1ccc(C(=O)OC)c(NC(=S)N2CCN(c3cc(Cl)ccc3C)CC2)c1` as the molecule, how does the Potency read?
Answer: The Potency was inconclusive: 31.6 µM [inhibitor, single point].

Question: With `CC(NC(=O)COc1ccc(/C=N/NC(=O)C(=O)Nc2ccccc2Br)cc1)c1ccccc1` (centres undefined) as the molecule, how does the Potency read?
Answer: The Potency was inconclusive: 35.5 µM [inhibitor, single point].

Question: Which “activity change, negative = inhibition” value does the source give for `CCOC(=O)c1c(NC(C)=O)no[n+]1[O-]` here?
Answer: The value was inactive: -0.243%.

Question: `Cc1ccc2cc3cc(C(=O)N4CCN(C(=O)c5ccco5)CC4)sc3nc2c1` was tested. Which Potency did it give?
Answer: The Potency was inconclusive: 28.2 µM [inhibitor, single point].

Question: For `COc1cc(Cn2c(-c3ccc(O)c(OC)c3)nc3ccccc32)ccc1O`, which Potency is on record?
Answer: Its Potency is inconclusive: 28.2 µM [inhibitor, single point].

Question: Which Potency does the source give for `O=C(O)CC1S/C(=N\N=C/c2ccccc2O)N(c2ccc(O)cc2)C1=O` (centres undefined) here?
Answer: Its Potency is inconclusive: 28.2 µM [inhibitor, single point].

Question: `CC(C)(C)n1nnnc1CN(Cc1ccco1)Cc1cc2cc3c(cc2[nH]c1=O)OCO3` was tested. Which Potency did it give?
Answer: Its Potency is inconclusive: 25.1 µM [inhibitor, partial curve].

Question: For `CSc1nc(C(=O)N2CCCC(C(=O)c3ccc(Cl)cc3)C2)cs1` (centres undefined), which “activity change, negative = inhibition” value is on record?
Answer: The value was inactive: -16.6%.

Question: How did the Potency turn out when `COc1ccc(NC(=O)CSc2c3c(nc4cc(Cl)ccc24)CCCC3)cc1OC` was run?
Answer: The Potency was inconclusive: 28.2 µM [inhibitor, single point].

Question: For `COc1cc(/C=N/NC(=O)c2ccc(CN3c4cccc5cccc(c45)S3(=O)=O)cc2)cc(OC)c1O`, which Potency is on record?
Answer: The Potency was inconclusive: 25.1 µM [inhibitor, partial curve].

Question: Which Potency does the source give for `OC(CNCC1(N2CCCCC2)CCCCC1)COc1ccc(Cl)cc1Cl` (centres undefined) here?
Answer: The Potency was inconclusive: 14.1 µM [inhibitor, partial curve].

Question: Which Potency does the source give for `CCOC(=O)c1sc2nc(N3CCOCC3)c3c(c2c1N)CCN(Cc1ccccc1)C3` here?
Answer: Its Potency is inconclusive: 7.08 µM [inhibitor, partial curve].

Question: `N#CC(C#N)=Cc1cn(-c2ncc(C(F)(F)F)cc2Cl)c2ccccc12` was tested. Which “activity change, negative = inhibition” value did it give?
Answer: The value was inactive: 98.4%.

Question: How did the Potency turn out when `CCN(CC(=O)Nc1ccc2c(c1)OCCO2)Cc1cc(=O)oc2cc(C)c(C)cc12` was run?
Answer: The Potency was inconclusive: 17.8 µM [inhibitor, single point].

Question: With `Cc1cc2n(n1)C(c1sccc1C)Nc1ccccc1-2` (centres undefined) as the molecule, how does the Potency read?
Answer: The Potency was inconclusive: 28.2 µM [inhibitor, partial curve].

Question: `COc1cc2nc(N3CCN(C(=O)[C@@H]4COc5ccccc5O4)CC3)nc(N)c2cc1OC` was tested. Which Potency did it give?
Answer: The Potency was inconclusive: 12.6 µM [inhibitor, partial curve].

Question: Which “activity change, negative = inhibition” value does the source give for `Cc1cnn(-c2cc(Oc3ccccc3)ncn2)c1` here?
Answer: The value was inactive: -0.768%.

Question: Which Potency does the source give for `CCOc1cc(/C=C(\C#N)c2[nH]nc(N)c2C#N)ccc1O` here?
Answer: Its Potency is inconclusive: 28.2 µM [inhibitor, single point].

Question: `COc1cccc(NC(=O)Nc2ccc3c(c2)nnn3C)c1` was tested. Which Potency did it give?
Answer: The Potency was inconclusive: 20 µM [inhibitor, partial curve].

Question: With `Cn1c(=O)n(C)c2cc(/C=N/NC(=O)c3ccc(Cl)cc3Cl)ccc21` as the molecule, how does the “activity change, negative = inhibition” value read?
Answer: The value was inactive: -10.1%.

Question: With `COc1cc(SC)ccc1C(=O)NC(C)C` as the molecule, how does the “activity change, negative = inhibition” value read?
Answer: Its value is inactive: -6.33%.

Question: For `Cc1ccc(C2C3=C(CC(C)(C)CC3=O)Nc3n[nH]c(C)c32)cc1` (centres undefined), which Potency is on record?
Answer: The Potency was inconclusive: 28.2 µM [inhibitor, partial curve].

Question: How did the Potency turn out when `CCNc1nc(NCC)nc(N/N=C/c2ccc(O)c(O)c2)n1` was run?
Answer: The Potency was active: 17.8 µM.

Question: With `COc1ccccc1/C=N/NC(=O)CNC(=O)c1ccccc1` as the molecule, how does the “activity change, negative = inhibition” value read?
Answer: Its value is inactive: -0.939%.

Question: With `CCCCCCCN1N=C(C)C(C(=O)c2ccccc2)C1=O` (centres undefined) as the molecule, how does the Potency read?
Answer: The Potency was inconclusive: 35.5 µM [inhibitor, single point].

Question: With `O=C(COC(=O)CCc1nc2ccccc2c(=O)[nH]1)Nc1ccccc1Cl` as the molecule, how does the “activity change, negative = inhibition” value read?
Answer: Its value is inactive: -8.95%.

Question: How did the Potency turn out when `c1ccc(-c2ccc(-c3cnc4n3CCCCC4)cc2)cc1` was run?
Answer: Its Potency is inconclusive: 28.2 µM [inhibitor, partial curve].
